Data: PubChem BioAssay AID1508624 (National Center for Advancing Translational Sciences (NCATS), 2021)
The campaign covered roughly 48,000 compounds. About 120 (0.25%) were called active. About 4% were inconclusive and are not listed. Calls follow the shape of the dose curve; as a rule, active = well fitted activation curve with a large enough effect; inconclusive = small, poorly fitted or top-dose-only effect, or another doubt; inactive = no such curve, though single readings can be large or run the other way. The list shows a part of the results.

Experiment: Primary qHTS for Identification of Small Molecule Activators of Huntingtin-Antisense Promoter Activity; also: nearly all actives have a fitted effect of over 55% in size
Conditions: HEK293 HTT-AS promoter firefly luciferase reporter (activity 0% = vehicle and -100% = no light), 24 h; series mostly up to 57.5 µM; activity change, positive = activation: at the top concentration
How it was run: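 HEK293 Fluc reporter, 2,500 cells/well, 24 h pre-culture; cpds up to 57.5 uM final, 24 h 37 degrees C; Dual-Glo, 10 min RT; normalized vehicle = 0%, zero RLU = -100%.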

Activity change, positive = activation, inactive:
O=C(Cn1ncc2c([nH]c3ccccc32)c1=O)Nc1cccc(C(F)(F)F)c1 -13%, Oc1c(C(c2ccc(F)cc2)N2CCOCC2)sc2nc(-c3ccco3)nn12 (stereo not given) -5.98%, CCc1ccc(-n2c(=O)c3c4c(sc3n(Cc3ccc(C)cc3)c2=O)CCC4)cc1 -16.6%, Cc1ccc(CNCc2ccccc2)s1 -7.65%, Cc1cc(C)cc(N2CC(c3nc(-c4cccc(Cl)c4)no3)CC2=O)c1 (stereo not given) -14.7%, COc1ccc(CCNc2nccn(-c3ccc(C)c(C)c3)c2=O)cc1OC -30.4%, Cc1ccccc1CN1c2ccccc2S(=O)(=O)c2ccccc21 -7.71%, O=C1C(Nc2ccccc2)=CC(c2ccc(Br)cc2)N1c1ccccc1 (stereo not given) 19.3%, COc1ccc(N2CCN(S(=O)(=O)c3c(C)[nH]c(=O)[nH]c3=O)CC2)cc1 -2.8%, COc1ccc(CCNC(=O)C(=O)Nc2ccc(C)cc2)cc1OC -0.617%, CCN(C(=O)c1cc2cc3ccc(OC)cc3nc2o1)c1cccc(C)c1 -8.69%, Cc1ccc(C)c(NC(=O)CSc2nc(-c3ccccc3)cc(=O)[nH]2)c1 -6.27%, CC(=O)c1ccc(Oc2nc(C)nc3c2oc2ccccc23)cc1 -76.4%, COc1ccc(-c2nc(C(=O)Nc3ccc(C(C)=O)cc3)nn2-c2cccc(Cl)c2)cc1 -24.8%, CC(C)c1ccc(NC(=O)c2ccc(F)c(S(=O)(=O)N3CCCCCC3)c2)cc1 -33.6%, COc1ccc(S(=O)(=O)NCCc2csc3nc(-c4ccc(OC)c(OC)c4)nn23)cc1C -10.5%, O=C1CCSc2ccc(S(=O)(=O)Nc3ccc(Cl)c(C(F)(F)F)c3)cc2N1 -16.3%, CCc1ccccc1NC(=O)c1ccc2c(c1)CCN2S(C)(=O)=O -8.55%, CC(C)(C)c1ccc(C(=O)Nc2cc(-c3nc4ccccc4o3)ccc2Cl)cc1 9.16%, CCCCn1c(=O)c2oc3ccccc3c2n(CC(=O)Nc2cccc(Cl)c2C)c1=O -6.17%, CCc1ccccc1NC(=O)C1CCN(S(=O)(=O)c2ccc3[nH]c(=O)ccc3c2)CC1 -7.76%, Cc1noc(C)c1S(=O)(=O)N1CCC(C(=O)Nc2ccc(Br)cc2)CC1 -27.5%, COc1ccc(Cc2nc3ccc(C(=O)NCc4ccc(OC)cc4OC)cc3o2)cc1 -39.8%, COc1ccc(CNC(=O)c2nc(Cn3nc(C)c(Br)c3C)no2)cc1OC -43.9%, COc1cc(NC(=O)c2sc3nc4n(c(=O)c3c2C)CCCCC4)cc(OC)c1OC -12.9%, Cc1cccc(CNC(=O)c2ccc(NC(=O)N3CC(C)Sc4ccccc43)cc2)c1 (stereo not given) -5.82%, Nc1c(C(=O)c2ccc(F)cc2)sc(Nc2ccccc2F)c1S(=O)(=O)c1ccc(Br)cc1 -33.3%, CC(C)CN(CCNC(=O)CN1C(=O)CSc2ccc(S(=O)(=O)N3CCOCC3)cc21)CC(C)C -4.92%, Cc1ccc(NC(=O)Cn2c(=O)n(-c3ccccc3)c(=O)c3ccc(C(=O)NCc4ccc5c(c4)OCO5)cc32)c(C)c1 -56.8%, CCOc1ccc(S(=O)(=O)N(CC(=O)Nc2ccc3c(c2)OCO3)c2ccccc2)cc1 -9.89%, O=C(/C=C\c1ccc2c(c1)OCO2)NC1CC(=O)N(c2cccc(F)c2)C1 (stereo not given) -12.8%, COc1ccccc1CNC(=O)c1ccc2c(c1)CCN2S(=O)(=O)c1ccccc1 -16.3%, O=C(Nc1c(-c2ccc(F)cc2)nc2ccccn12)c1ccccc1F -13.6%, CCOC(=O)c1cccc(NC(=O)c2ccc3nc(Cc4ccccc4)oc3c2)c1 -16.1%, CC(C)NCC(O)COc1ccc(COCCOC(C)C)cc1 (stereo not given), COc1ccc(CN(Cc2ccco2)c2cnc(S(C)(=O)=O)nc2C(=O)Nc2ccc(F)cc2)cc1 -22.9%, COc1ccc(OC)c(-c2csc(-c3c(N)c(C(=O)c4ccccc4)n4ccccc34)n2)c1 10.2%, Cn1c(=O)n(C/C=C/c2ccccc2)c(=O)c2c1nc1n2CCN1c1ccccc1 -9.6%, CCCCOc1ccc(CNC(=O)C2COc3ccc(OC)cc3C2)cc1 (stereo not given) -16.4%, COc1ccc(S(=O)(=O)N(CC(=O)Nc2cccc(C(F)(F)F)c2)c2ccc(C)cc2)cc1 -37.6%, CCOc1ccc(C(=O)c2cn(CC(=O)Nc3ccc4c(c3)OCO4)c3ccc(OCC)cc3c2=O)cc1 -8.65%, COc1ccc(-n2c(=O)c3c(c4cc(OC)ccc4n3C)n(Cc3cc(C)ccc3C)c2=O)cc1 -5.68%, COC(=O)c1cccnc1-n1c(=O)c2cccnc2n(CC(=O)Nc2c(C)cc(C)cc2C)c1=O -17.9%, O=C(Cn1ncn2nc(-c3cccs3)cc2c1=O)NCc1cccc(Br)c1 6.12%, Cc1ccc(NC(=O)CN2C(=O)COc3ccc(S(=O)(=O)N4CCCCC4)cc32)cc1N(C)C -14.3%, CCOc1ccc(NC(=O)CC2C(=O)N(c3ccccc3)C(=O)N2Cc2ccc3c(c2)OCO3)cc1 (stereo not given) 0%, Cc1ccc(CNC(=O)C2CCN(S(=O)(=O)c3cc(-c4noc(C)n4)ccc3C)CC2)cc1 -38.6%, Cc1nc2c(-c3ccccc3)c(C)nn2c(C)c1CCC(=O)NCc1ccc(F)cc1 -13.6%, Cc1c(Cl)cccc1-n1nc(C)c2c(C(=O)NCc3ccccc3)cc(C3CC3)nc21 -12.3%, Cn1c(=O)oc2cc(S(=O)(=O)Nc3ccccc3O)ccc21 -13.4%, CCOc1ccc(CCNC(=O)c2cc3c(s2)-c2ccccc2OC3)cc1OCC -26.4%, COc1ccc(-c2cc(C(F)(F)F)nc(SCC(=O)N3CCC(C)CC3)n2)cc1 -3.38%, Cc1ccc(-n2c3c(c(=O)[nH]c2=O)C(NC(=O)c2ccccc2C)(C(F)(F)F)C(=O)N3)cc1 (stereo not given) 1.45%, COc1cccc(/C=C/c2onc(C)c2S(=O)(=O)N2CCC(C(=O)N3CCC(C)CC3)CC2)c1 -19.8%, COc1ccccc1N1CCN(C(=O)CSc2n[nH]c(-c3ccccc3)n2)CC1 -18.7%, Cc1cc2ccccc2n1-c1ccc(C(=O)N2CCC(C(=O)NCc3ccccc3Cl)CC2)s1 -12.6%, CC(CNC(=O)Cc1ccc(NC(=O)N2CCSc3ncccc32)cc1)c1ccccc1 (stereo not given) -29.4%, COC(=O)c1scc(-c2ccc(C)cc2)c1S(=O)(=O)Nc1ccc(N(C)C)cc1 -17%, COc1ccc(-c2cn3c(n2)sc2cc(C(=O)Nc4cccc(OC)c4)ccc23)cc1 2.72%, Cc1ccccc1NCc1cccn1-c1nnc(N2CCC(C)CC2)s1 -3.53%
